# Measurements: the supplement of paper PMC8728848
# The other results are listed elsewhere or left out.
# B1: CFEM-PPm (Pichia pastoris), F2QPV1 (protein)
# chain: AVATPPACLLACAAEVVKESSDCDALNNIQCICENEGSAIHACLESTCPDGLSSTALQSFEDVCE
# Legend:
# Assay in all cases: glycan array binding signal (z-score within array); higher = stronger binding
# Details in all cases: glycan notation: IUPAC condensed, linker removed
# [1] = molecular target: Neu5Ac(a2-6)Gal(b1-4)GlcNAc(b1-3)Gal(b1-4)GlcNAc(b1-3)Gal(b1-4)GlcNAc(b1-2)Man(a1-3)[Neu5Ac(a2-6)Gal(b1-4)GlcNAc(b1-3)Gal(b1-4)GlcNAc(b1-3)Gal(b1-4)GlcNAc(b1-2)Man(a1-6)]GalNAc
# Procedure, shortened: (§1)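 Glycan array data came from 3228 arrays in the Consortium for Functional Glycomics database, and only arrays with an available protein sequence were kept. Glycan names were put into IUPAC-condensed notation, and columns mapping to the same glycan were averaged. The binding signal is a within-array Z-score, averaged across arrays of one protein sequence run at different concentrations or buffers and across linkers. A negative Z-score can be read as non-binding.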
# [2] = molecular target: Neu5Ac(a2-6)Gal(b1-4)GlcNAc(b1-3)Gal(b1-4)GlcNAc(b1-3)GalNAc
# Procedure, shortened: as §1
# [3] = molecular target: Neu5Ac(a2-6)Gal(b1-4)GlcNAc(b1-3)Gal(b1-4)GlcNAc(b1-3)[Neu5Ac(a2-6)Gal(b1-4)GlcNAc(b1-3)Gal(b1-4)GlcNAc(b1-6)]GalNAc
# Procedure, shortened: as §1
# [4] = molecular target: Neu5Ac(a2-6)Gal(b1-4)GlcNAc(b1-3)Gal(b1-4)GlcNAc(b1-6)[Gal(b1-3)]GalNAc
# Procedure, shortened: as §1
# [5] = molecular target: Neu5Ac(a2-6)Gal(b1-4)GlcNAc(b1-3)Gal(b1-4)[Fuc(a1-3)]GlcNAc(b1-3)Gal(b1-4)[Fuc(a1-3)]GlcNAc
# Procedure, shortened: as §1
# [6] = molecular target: Neu5Ac(a2-6)Gal(b1-4)GlcNAc(b1-3)GalNAc
# Procedure, shortened: as §1
# [7] = molecular target: Neu5Ac(a2-6)Gal(b1-4)GlcNAc(b1-3)[Neu5Ac(a2-6)Gal(b1-4)GlcNAc(b1-6)]GalNAc
# Procedure, shortened: as §1
# [8] = molecular target: Neu5Ac(a2-6)Gal(b1-4)GlcNAc(b1-6)GalNAc
# Procedure, shortened: as §1
# [9] = molecular target: Neu5Ac(a2-6)Gal(b1-4)GlcNAc(b1-6)[Gal(b1-3)GlcNAc(b1-3)]Gal(b1-4)Glc
# Procedure, shortened: as §1
# [10] = molecular target: Neu5Ac(a2-6)Gal(b1-4)GlcNAc(b1-6)[Gal(b1-3)]GalNAc
# Procedure, shortened: as §1
# [11] = molecular target: Neu5Ac(a2-6)Gal(b1-4)GlcNAc6S
# Procedure, shortened: as §1
# [12] = molecular target: Neu5Ac(a2-6)GalNAc
# Procedure, shortened: as §1
# [13] = molecular target: Neu5Ac(a2-6)GalNAc(b1-4)GlcNAc
# Procedure, shortened: as §1
# [14] = molecular target: Neu5Ac(a2-6)GalNAc(b1-4)GlcNAc6S
# Procedure, shortened: as §1
# [15] = molecular target: Neu5Ac(a2-6)GlcNAc(b1-4)GlcNAc
# Procedure, shortened: as §1
# [16] = molecular target: Neu5Ac(a2-6)GlcNAc(b1-4)GlcNAc(b1-4)GlcNAc
# Procedure, shortened: as §1
# [17] = molecular target: Neu5Ac(a2-8)Neu5Ac
# Procedure, shortened: as §1
# [18] = molecular target: Neu5Ac(a2-8)Neu5Ac(a2-3)Gal(b1-3)GalNAc(b1-4)[Neu5Ac(a2-3)]Gal(b1-4)Glc
# Procedure, shortened: as §1
# [19] = molecular target: Neu5Ac(a2-8)Neu5Ac(a2-3)Gal(b1-3)GalNAc(b1-4)[Neu5Ac(a2-8)Neu5Ac(a2-3)]Gal(b1-4)Glc
# Procedure, shortened: as §1
# [20] = molecular target: Neu5Ac(a2-8)Neu5Ac(a2-3)Gal(b1-4)Glc
# Procedure, shortened: as §1
# [21] = molecular target: Neu5Ac(a2-8)Neu5Ac(a2-3)Gal(b1-4)GlcNAc
# Procedure, shortened: as §1
# [22] = molecular target: Neu5Ac(a2-8)Neu5Ac(a2-3)[Gal(b1-3)GalNAc(b1-4)]Gal(b1-4)Glc
# Procedure, shortened: as §1
# [23] = molecular target: Neu5Ac(a2-8)Neu5Ac(a2-3)[GalNAc(b1-4)]Gal(b1-4)Glc
# Procedure, shortened: as §1
# [24] = molecular target: Neu5Ac(a2-8)Neu5Ac(a2-8)Neu5Ac
# Procedure, shortened: as §1
# [25] = molecular target: Neu5Ac(a2-8)Neu5Ac(a2-8)Neu5Ac(a2-3)Gal(b1-4)Glc
# Procedure, shortened: as §1
# [26] = molecular target: Neu5Ac(a2-8)Neu5Ac(a2-8)Neu5Ac(a2-3)[Gal(b1-3)GalNAc(b1-4)]Gal(b1-4)Glc
# Procedure, shortened: as §1
# [27] = molecular target: Neu5Ac(a2-8)Neu5Ac(a2-8)Neu5Ac(a2-3)[GalNAc(b1-4)]Gal(b1-4)Glc
# Procedure, shortened: as §1
# [28] = molecular target: Neu5Ac(a2-8)Neu5Ac(a2-8)Neu5Ac(a2-8)Neu5Ac(a2-3)[GalNAc(b1-4)]Gal(b1-4)Glc
# Procedure, shortened: as §1
# [29] = molecular target: Neu5Ac(a2-8)Neu5Gc(a2-3)Gal(b1-4)GlcNAc
# Procedure, shortened: as §1
# [30] = molecular target: Neu5Ac(b2-6)Gal(b1-4)GlcNAc
# Procedure, shortened: as §1
# [31] = molecular target: Neu5Ac(b2-6)GalNAc
# Procedure, shortened: as §1
# [32] = molecular target: Neu5Ac9Ac(a2-3)Gal(b1-3)GlcNAc
# Procedure, shortened: as §1
# [33] = molecular target: Neu5Ac9Ac(a2-3)Gal(b1-4)GlcNAc
# Procedure, shortened: as §1
# [34] = molecular target: Neu5Ac9Ac(a2-6)Gal(b1-4)GlcNAc
# Procedure, shortened: as §1
# [35] = molecular target: Neu5Gc(a2-3)Gal(b1-3)GlcNAc
# Procedure, shortened: as §1
# [36] = molecular target: Neu5Gc(a2-3)Gal(b1-3)[Fuc(a1-4)]GlcNAc
# Procedure, shortened: as §1
# [37] = molecular target: Neu5Gc(a2-3)Gal(b1-4)Glc
# Procedure, shortened: as §1
# [38] = molecular target: Neu5Gc(a2-3)Gal(b1-4)GlcNAc
# Procedure, shortened: as §1
# [39] = molecular target: Neu5Gc(a2-3)Gal(b1-4)GlcNAc(b1-3)Gal(b1-4)GlcNAc(b1-2)Man(a1-3)[Neu5Gc(a2-3)Gal(b1-4)GlcNAc(b1-3)Gal(b1-4)GlcNAc(b1-2)Man(a1-6)]Man(b1-4)GlcNAc(b1-4)GlcNAc
# Procedure, shortened: as §1
# [40] = molecular target: Neu5Gc(a2-3)Gal(b1-4)[Fuc(a1-3)]GlcNAc
# Procedure, shortened: as §1
# [41] = molecular target: Neu5Gc(a2-6)Gal(b1-4)GlcNAc
# Procedure, shortened: as §1
# [42] = molecular target: Neu5Gc(a2-6)GalNAc
# Procedure, shortened: as §1
# [43] = molecular target: Neu5Gc(a2-8)Neu5Ac(a2-3)Gal(b1-4)GlcNAc
# Procedure, shortened: as §1
# [44] = molecular target: Neu5Gc(a2-8)Neu5Gc(a2-3)Gal(b1-4)GlcNAc
# Procedure, shortened: as §1
# [45] = molecular target: Neu5Gc(a2-8)Neu5Gc(a2-3)Gal(b1-4)GlcNAc(b1-3)Gal(b1-4)GlcNAc
# Procedure, shortened: as §1
# [46] = molecular target: Neu5Gc(a2-8)Neu5Gc(a2-6)Gal(b1-4)GlcNAc
# Procedure, shortened: as §1
# [47] = molecular target: Neu5Gc(b2-6)Gal(b1-4)GlcNAc
# Procedure, shortened: as §1
binder,measurement,setting,value
B1,glycan array binding signal (z-score),[1],0.656
same,glycan array binding signal (z-score),[2],-0.303
same,glycan array binding signal (z-score),[3],-0.23
same,glycan array binding signal (z-score),[4],0.617
same,glycan array binding signal (z-score),[5],-0.281
same,glycan array binding signal (z-score),[6],-0.168
same,glycan array binding signal (z-score),[7],0.043
same,glycan array binding signal (z-score),[8],0.356
same,glycan array binding signal (z-score),[9],-0.178
same,glycan array binding signal (z-score),[10],0.637
same,glycan array binding signal (z-score),[11],-0.208
same,glycan array binding signal (z-score),[12],-0.353
same,glycan array binding signal (z-score),[13],-0.32
same,glycan array binding signal (z-score),[14],-0.184
same,glycan array binding signal (z-score),[15],-0.351
same,glycan array binding signal (z-score),[16],-0.354
same,glycan array binding signal (z-score),[17],-0.096
same,glycan array binding signal (z-score),[18],0.442
same,glycan array binding signal (z-score),[19],-0.11
same,glycan array binding signal (z-score),[20],-0.359
same,glycan array binding signal (z-score),[21],-0.338
same,glycan array binding signal (z-score),[22],1.2
same,glycan array binding signal (z-score),[23],-0.199
same,glycan array binding signal (z-score),[24],-0.261
same,glycan array binding signal (z-score),[25],-0.411
same,glycan array binding signal (z-score),[26],-0.121
same,glycan array binding signal (z-score),[27],-0.311
same,glycan array binding signal (z-score),[28],-0.319
same,glycan array binding signal (z-score),[29],-0.109
same,glycan array binding signal (z-score),[30],-0.005
same,glycan array binding signal (z-score),[31],-0.43
same,glycan array binding signal (z-score),[32],-0.058
same,glycan array binding signal (z-score),[33],-0.336
same,glycan array binding signal (z-score),[34],-0.377
same,glycan array binding signal (z-score),[35],-0.237
same,glycan array binding signal (z-score),[36],-0.246
same,glycan array binding signal (z-score),[37],-0.234
same,glycan array binding signal (z-score),[38],-0.235
same,glycan array binding signal (z-score),[39],-0.359
same,glycan array binding signal (z-score),[40],-0.063
same,glycan array binding signal (z-score),[41],-0.291
same,glycan array binding signal (z-score),[42],-0.287
same,glycan array binding signal (z-score),[43],-0.077
same,glycan array binding signal (z-score),[44],-0.188
same,glycan array binding signal (z-score),[45],-0.332
same,glycan array binding signal (z-score),[46],-0.186
same,glycan array binding signal (z-score),[47],-0.034
